# According to the supplement of paper PMC8728848:
# The other results are listed elsewhere or left out.
# Legend:
# Assay in all cases: glycan array binding signal (z-score within array); higher = stronger binding
# Settings in all cases: glycan notation: IUPAC condensed, linker removed
# [1] = molecular target: Gal(b1-3)GlcNAc(b1-3)Gal(b1-3)GlcNAc
# In short: (§1)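 Negative Z-scores can be read as non-binding. The Z-score is calculated within each array and then averaged across arrays of one protein sequence at different concentrations or buffers and across linkers. Arrays, 3228 in all, were curated from the Consortium for Functional Glycomics database and kept only where the protein sequence was available.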
# [2] = molecular target: Gal(b1-3)GlcNAc(b1-3)Gal(b1-4)Glc
# In short: as §1
# [3] = molecular target: Gal(b1-3)GlcNAc(b1-3)Gal(b1-4)GlcNAc
# In short: as §1
# [4] = molecular target: Gal(b1-3)GlcNAc(b1-3)Gal(b1-4)GlcNAc(b1-6)[Gal(b1-3)GlcNAc(b1-3)]Gal(b1-4)Glc
# In short: as §1
# [5] = molecular target: Gal(b1-3)GlcNAc(b1-3)Gal(b1-4)[Fuc(a1-3)]GlcNAc(b1-6)[Gal(b1-3)GlcNAc(b1-3)]Gal(b1-4)Glc
# In short: as §1
# [6] = molecular target: Gal(b1-3)GlcNAc(b1-3)GalNAc
# In short: as §1
# [7] = molecular target: Gal(b1-3)GlcNAc(b1-6)Gal(b1-4)GlcNAc
# In short: as §1
# [8] = molecular target: Gal(b1-3)GlcNAc(b1-6)GalNAc
# In short: as §1
# [9] = molecular target: Gal(b1-3)GlcNAc6S
# In short: as §1
# [10] = molecular target: Gal(b1-3)[Fuc(a1-4)]GlcNAc
# In short: as §1
# [11] = molecular target: Gal(b1-3)[Fuc(a1-4)]GlcNAc(b1-2)Man(a1-3)[Gal(b1-3)[Fuc(a1-4)]GlcNAc(b1-2)Man(a1-6)]Man(b1-4)GlcNAc(b1-4)[Fuc(a1-6)]GlcNAc
# In short: as §1
# [12] = molecular target: Gal(b1-3)[Fuc(a1-4)]GlcNAc(b1-3)Gal(b1-3)[Fuc(a1-4)]GlcNAc
# In short: as §1
# [13] = molecular target: Gal(b1-3)[Fuc(a1-4)]GlcNAc(b1-3)Gal(b1-4)GlcNAc
# In short: as §1
# [14] = molecular target: Gal(b1-3)[Fuc(a1-4)]GlcNAc(b1-3)Gal(b1-4)[Fuc(a1-3)]GlcNAc
# In short: as §1
# [15] = molecular target: Gal(b1-3)[Fuc(a1-4)]GlcNAc(b1-6)GalNAc
# In short: as §1
# [16] = molecular target: Gal(b1-3)[GlcNAc(b1-6)]GalNAc
# In short: as §1
# [17] = molecular target: Gal(b1-3)[Neu5Ac(a2-6)]GalNAc
# In short: as §1
# [18] = molecular target: Gal(b1-3)[Neu5Ac(a2-6)]GlcNAc(b1-6)Gal(b1-4)Glc
# In short: as §1
# [19] = molecular target: Gal(b1-3)[Neu5Ac(b2-6)]GalNAc
# In short: as §1
# [20] = molecular target: Gal(b1-4)Gal
# In short: as §1
# [21] = molecular target: Gal(b1-4)GalNAc(a1-3)[Fuc(a1-2)]Gal(b1-4)GlcNAc
# In short: as §1
# [22] = molecular target: Gal(b1-4)GalNAc(b1-3)[Fuc(a1-2)]Gal(b1-4)GlcNAc
# In short: as §1
# [23] = molecular target: Gal(b1-4)Glc
# In short: as §1
# [24] = molecular target: Gal(b1-4)Glc6S
# In short: as §1
# [25] = molecular target: Gal(b1-4)GlcNAc
# In short: as §1
# [26] = molecular target: Gal(b1-4)GlcNAc(a1-6)Gal(b1-4)GlcNAc
# In short: as §1
# [27] = molecular target: Gal(b1-4)GlcNAc(b1-2)Man
# In short: as §1
# [28] = molecular target: Gal(b1-4)GlcNAc(b1-2)Man(a1-3)Man(b1-4)GlcNAc(b1-4)GlcNAc
# In short: as §1
# [29] = molecular target: Gal(b1-4)GlcNAc(b1-2)Man(a1-3)[Gal(b1-4)GlcNAc(b1-2)Man(a1-6)]Man(b1-4)GlcNAc(b1-4)GlcNAc
# In short: as §1
# [30] = molecular target: Gal(b1-4)GlcNAc(b1-2)Man(a1-3)[Gal(b1-4)GlcNAc(b1-2)Man(a1-6)]Man(b1-4)GlcNAc(b1-4)[Fuc(a1-6)]GlcNAc
# In short: as §1
# [31] = molecular target: Gal(b1-4)GlcNAc(b1-2)Man(a1-3)[Gal(b1-4)GlcNAc(b1-2)][GlcNAc(b1-4)]Man(b1-4)GlcNAc(b1-4)GlcNAc
# In short: as §1
# [32] = molecular target: Gal(b1-4)GlcNAc(b1-2)Man(a1-3)[GlcNAc(b1-2)Man(a1-6)]Man(b1-4)GlcNAc(b1-4)GlcNAc
# In short: as §1
# [33] = molecular target: Gal(b1-4)GlcNAc(b1-2)Man(a1-3)[Man(a1-6)]Man(b1-4)GlcNAc(b1-4)GlcNAc
# In short: as §1
# [34] = molecular target: Gal(b1-4)GlcNAc(b1-2)Man(a1-6)Man(b1-4)GlcNAc(b1-4)GlcNAc
# In short: as §1
# [35] = molecular target: Gal(b1-4)GlcNAc(b1-2)Man(a1-6)[GlcNAc(b1-2)Man(a1-3)]Man(b1-4)GlcNAc(b1-4)GlcNAc
# In short: as §1
# [36] = molecular target: Gal(b1-4)GlcNAc(b1-2)Man(a1-6)[Man(a1-3)]Man(b1-4)GlcNAc(b1-4)GlcNAc
# In short: as §1
# [37] = molecular target: Gal(b1-4)GlcNAc(b1-2)[Gal(b1-4)GlcNAc(b1-4)]Man(a1-3)[Gal(b1-4)GlcNAc(b1-2)Man(a1-6)]Man(b1-4)GlcNAc(b1-4)GlcNAc
# In short: as §1
# [38] = molecular target: Gal(b1-4)GlcNAc(b1-2)[Gal(b1-4)GlcNAc(b1-4)]Man(a1-3)[Gal(b1-4)GlcNAc(b1-2)[Gal(b1-4)GlcNAc(b1-6)]Man(a1-6)]Man(b1-4)GlcNAc(b1-4)GlcNAc
# In short: as §1
binder,measurement,setting,value
"OrfX (Escherichia coli), Q9X4B6_ECOLX (protein) MIKIARIAVTLGLLSSLGAQAYAAGLVVNDNDLRNDLAWLSDRGVIHLSLSTWPLSQEEIARALKKAKPSYSSEQVVLARINQRLSALKADFRVTGYTSTDQPGTPQGFGQTQPADNSLGLAFNNSGEWWDVHLQGNVEGGERISNGSRFNANGAYGAVKFWNQWLSFGQVPQWWGPGYEGSLIRGDAMRPMTGFLMQRAEQAAPETWWLRWVGPWQYQISASQMNQYTAVPHAKIIGGRFTFTPFQSLELGASRIMQWGGEGRPQSFSSFWDGFTGHDNTGTDNEPGNQLAGFDFKFKLEPTLGWPVSFYGQMVGEDESGYLPSANMFLGGVEGHHGWGKDTVNWYVEAHDTRTNMSRTNYSYTHHIYKDGYYQQGYPLGDAMGGDGQLIAGKVELITEDNQRWSTRLVYAKVNPENQSINKAFPHADTLKGLQLGWSGDVYQSVRLNTSLWYTNANNSDSDDVGASAGIEIPFSL",glycan array binding signal (z-score),[1],-0.076
same,glycan array binding signal (z-score),[2],0.161
same,glycan array binding signal (z-score),[3],-0.06
same,glycan array binding signal (z-score),[4],-0.384
same,glycan array binding signal (z-score),[5],-0.424
same,glycan array binding signal (z-score),[6],-0.321
same,glycan array binding signal (z-score),[7],-0.048
same,glycan array binding signal (z-score),[8],-0.097
same,glycan array binding signal (z-score),[9],0.065
same,glycan array binding signal (z-score),[10],-0.209
same,glycan array binding signal (z-score),[11],0.716
same,glycan array binding signal (z-score),[12],-0.339
same,glycan array binding signal (z-score),[13],-0.238
same,glycan array binding signal (z-score),[14],-0.26
same,glycan array binding signal (z-score),[15],-0.074
same,glycan array binding signal (z-score),[16],0.022
same,glycan array binding signal (z-score),[17],-0.292
same,glycan array binding signal (z-score),[18],-0.207
same,glycan array binding signal (z-score),[19],-0.066
same,glycan array binding signal (z-score),[20],-0.226
same,glycan array binding signal (z-score),[21],-0.257
same,glycan array binding signal (z-score),[22],-0.145
same,glycan array binding signal (z-score),[23],0.071
same,glycan array binding signal (z-score),[24],-0.219
same,glycan array binding signal (z-score),[25],-0.185
same,glycan array binding signal (z-score),[26],-0.185
same,glycan array binding signal (z-score),[27],-0.061
same,glycan array binding signal (z-score),[28],-0.266
same,glycan array binding signal (z-score),[29],-0.203
same,glycan array binding signal (z-score),[30],-0.188
same,glycan array binding signal (z-score),[31],-0.295
same,glycan array binding signal (z-score),[32],-0.214
same,glycan array binding signal (z-score),[33],-0.226
same,glycan array binding signal (z-score),[34],-0.207
same,glycan array binding signal (z-score),[35],-0.193
same,glycan array binding signal (z-score),[36],-0.273
same,glycan array binding signal (z-score),[37],-0.233
same,glycan array binding signal (z-score),[38],-0.359
